# Measurements: the antibiotic and cytotoxicity screens of Wong et al. (2023)
# The list shows a part of the results.
# Key:
# HSkMC = human skeletal muscle cells; test: cytotoxicity call (relative viability < 0.9); settings: 10 µM
# HepG2 = test: cytotoxicity call (relative viability < 0.9); settings: 10 µM
# S. aureus RN4220 = test: growth inhibition call (relative growth <= 0.2); settings: 50 µM
SMILES,cytotoxicity call (HSkMC),cytotoxicity call (HepG2),growth inhibition call (S. aureus RN4220)
C[C@@H]1CN([C@H](C)CO)S(=O)(=O)c2ccc(C#CC3CCCC3)cc2O[C@H]1CN(C)C(=O)Cc1ccncc1,inactive,inactive,inactive
C[C@@H]1CCCCO[C@H](CN(C)C(=O)CCCN(C)C)[C@@H](C)CN([C@H](C)CO)C(=O)c2cc(N(C)C)ccc2O1,inactive,inactive,inactive
O=C(C[C@@H]1CC=CC[C@@H](NC(=O)OCC2c3ccccc3-c3ccccc32)C(=O)OC[C@@H](Cc2c[nH]c3ccccc23)NC1=O)N[C@H](CO)Cc1ccccc1,inactive,inactive,inactive
C[C@@H]1CN([C@@H](C)CO)C(=O)c2cc(-c3cccc(C(=O)N(C)C)c3)cnc2O[C@H]1CN(C)S(=O)(=O)c1ccc(F)cc1,inactive,inactive,inactive
CC(C)(Sc1cc(C(C)(C)C)c(O)c(C(C)(C)C)c1)Sc1cc(C(C)(C)C)c(OCC(=O)O)c(C(C)(C)C)c1,active,inactive,active
O=C(C[C@@H]1C[C@@H]2c3cc(NS(=O)(=O)c4ccc(F)cc4)ccc3O[C@@H]2[C@H](CO)O1)NCCN1CCCCC1,inactive,inactive,inactive
C[C@@H]1CN([C@H](C)CO)C(=O)c2cccc(NC(=O)c3nc4ccccc4s3)c2O[C@@H]1CN(C)S(C)(=O)=O,inactive,inactive,inactive
C[C@H](CO)N1C[C@H](C)[C@@H](CN(C)S(=O)(=O)c2cn(C)cn2)Oc2ccc(NS(C)(=O)=O)cc2C1=O,inactive,inactive,inactive
O=C(C[C@H]1C[C@H]2c3cc(NS(=O)(=O)c4ccc(F)cc4)ccc3O[C@H]2[C@H](CO)O1)NCCN1CCCCC1,inactive,inactive,inactive
COc1ccc(NC(=O)Nc2cccc3c2O[C@H](CN(C)Cc2ccc(C(=O)Nc4ccccc4N)cc2)[C@@H](C)CN([C@H](C)CO)C3=O)cc1,inactive,inactive,inactive
C[C@H]1CN([C@@H](C)CO)C(=O)c2cc(NC(=O)Nc3ccccc3)ccc2O[C@H]1CN(C)Cc1ccc(Cl)c(Cl)c1,active,active,inactive
C[C@H]1CN([C@@H](C)CO)C(=O)c2cc(-c3ccc(C(=O)N(C)C)cc3)cnc2O[C@H]1CN(C)C(=O)c1ccncc1,inactive,inactive,inactive
C[C@@H]1CN([C@@H](C)CO)C(=O)c2cc(NC(=O)CCN3CCOCC3)ccc2O[C@@H]1CN(C)S(C)(=O)=O,inactive,inactive,inactive
C[C@@H]1CN([C@@H](C)CO)C(=O)c2c(c3ccccc3n2C)-c2ccccc2CO[C@@H]1CN(C)C(=O)Nc1ccccc1,inactive,inactive,inactive
C[C@@H]1CN([C@H](C)CO)C(=O)c2cc(NC(=O)Nc3cccc4ccccc34)ccc2O[C@@H](C)CCCCO[C@@H]1CN(C)CC1CCCCC1,active,active,inactive
C[C@H](CO)N1C[C@H](C)[C@H](CN(C)Cc2ccccc2)Oc2c(NC(=O)c3ccc(-c4nccs4)cc3)cccc2C1=O,inactive,inactive,inactive
C[C@H]1CN([C@@H](C)CO)C(=O)Cc2cc(NC(=O)Cc3cn(C)c4ccccc34)ccc2O[C@H]1CN(C)S(C)(=O)=O,inactive,inactive,inactive
O=C(C[C@@H]1CC[C@H]2[C@@H](COC[C@@H](O)CN2S(=O)(=O)c2ccc(F)cc2)O1)N1CCc2ccccc2C1,inactive,inactive,inactive
O=C(C[C@H]1CC[C@H]2[C@@H](COC[C@H](O)CN2S(=O)(=O)c2cccc(Cl)c2)O1)NCc1ccncn1,inactive,inactive,inactive

SMILES,cytotoxicity call (HSkMC),cytotoxicity call (HepG2),growth inhibition call (S. aureus RN4220)
CCCN(CCC)c1cc(N2CCCC2)c2ccccc2c1,inactive,active,inactive
C[C@H](CO)N1C[C@H](C)[C@H](CN(C)Cc2ccc(C(F)(F)F)cc2)Oc2c(NC(=O)CCCCCC(=O)Nc3ccccc3N)cccc2C1=O,inactive,inactive,inactive
CCCNC(=O)NS(=O)(=O)c1ccc(Cl)cc1,inactive,inactive,inactive
COC(=O)c1cc(S(C)(=O)=O)ccc1OC,inactive,inactive,inactive
Cc1ccc(S[C@]2(C(=O)NC(C)C)CC(=O)N(Cc3ccccc3Cl)[C@@H]2c2ccc(CO)cc2I)cc1,inactive,inactive,inactive
CC(C)NC(=O)Nc1ccc2c(c1)C(=O)N([C@@H](C)CO)C[C@@H](C)[C@@H](CN(C)S(=O)(=O)c1cn(C)cn1)OCCCC[C@@H](C)O2,inactive,inactive,inactive
C[C@@H](O)c1ccc2ccccc2c1,inactive,inactive,inactive
Cc1noc(C)c1NC(=O)Nc1ccc2c(c1)C(=O)N([C@H](C)CO)C[C@H](C)[C@H](CN(C)Cc1ccc(C(=O)Nc3ccccc3N)cc1)O2,inactive,inactive,inactive
C[C@@H]1CN([C@H](C)CO)C(=O)c2cc(NS(=O)(=O)c3ccc(F)cc3)ccc2O[C@@H]1CN(C)S(=O)(=O)c1ccccc1,inactive,inactive,inactive
C[C@H]1CCCCO[C@H](CN(C)C(=O)Nc2ccc3c(c2)OCO3)[C@@H](C)CN([C@@H](C)CO)C(=O)c2cc(NC(=O)Nc3ccc(C(F)(F)F)cc3)ccc2O1,inactive,inactive,inactive
O=C(C[C@H]1CC[C@H]2[C@@H](COC[C@@H](O)CN2C(=O)c2cccnc2)O1)NCc1ccc(-c2ccccc2)cc1,inactive,inactive,inactive
CCOC(=O)C(CCc1ccccc1)NC(C)C(=O)N1C(C(=O)O)CC2CCCC21 (stereo not drawn),inactive,inactive,inactive
C[C@@H]1CN([C@@H](C)CO)S(=O)(=O)c2ccc(C#CC(C)(C)O)cc2O[C@@H]1CN(C)Cc1ccccc1,inactive,inactive,inactive
CCCCC(=O)OCC(=O)[C@]1(O)Cc2c(O)c3c(c(O)c2[C@@H](O[C@H]2C[C@H](NC(=O)C(F)(F)F)[C@H](O)[C@H](C)O2)C1)C(=O)c1c(OC)cccc1C3=O,active,active,inactive
Cc1noc(C)c1S(=O)(=O)N(C)C[C@@H]1Oc2c(NC(=O)C3CC3)cccc2C(=O)N([C@H](C)CO)C[C@@H]1C,inactive,inactive,inactive
CS(=O)(=O)CC(=O)N1C[C@H]2COC[C@@]2(COc2ccccn2)C1,inactive,inactive,inactive
N[C@@H](CSS(=O)(=O)O)C(=O)O,inactive,inactive,inactive
NCCCCCCNC(=O)[C@@H]1C[C@@H]2C(=O)N[C@@H](CCCCN)C(=O)N2[C@@H]1c1ccc(O)cc1,inactive,inactive,inactive
CC(C)NC(=O)N(C)C[C@H]1Oc2ccc(NS(=O)(=O)c3cccs3)cc2CC(=O)N([C@H](C)CO)C[C@@H]1C,inactive,inactive,inactive

SMILES,cytotoxicity call (HSkMC),cytotoxicity call (HepG2),growth inhibition call (S. aureus RN4220)
C[C@@H]1CN([C@@H](C)CO)C(=O)c2cc(NC(=O)Nc3ccc(F)cc3)ccc2O[C@@H](C)CCCCO[C@@H]1CN(C)C(=O)c1ccccc1,inactive,inactive,inactive
C[C@@H]1CN([C@H](C)CO)C(=O)Cc2cc(NC(=O)C3CCCCC3)ccc2O[C@@H]1CN(C)Cc1ccc(C(F)(F)F)cc1,inactive,active,inactive
COc1ccc([C@H]([C@@H](O)Cc2ccccc2)N(C[C@H](/C=C/c2ccccc2)NC(=O)C(Cl)(Cl)Cl)[C@@H](Cc2ccccc2)C(OC)OC)cc1,inactive,inactive,inactive
Nc1nccnc1Cl,inactive,inactive,inactive
N[C@H](CSCSC[C@H](N)C(=O)O)C(=O)O,inactive,inactive,inactive
CNC(=O)C[C@@H]1CC[C@H]2[C@@H](COC[C@@H](O)CN2C(=O)Nc2ccc3c(c2)OCO3)O1,inactive,inactive,inactive
C[C@@H]1CN([C@@H](C)CO)C(=O)c2cccc(NS(C)(=O)=O)c2O[C@H]1CN(C)S(=O)(=O)c1cccs1,inactive,inactive,inactive
CC(=O)N1CCc2c(sc(N)c2C(N)=O)C1,inactive,inactive,inactive
CC(C)NC(=O)Nc1ccc2c(c1)CC(=O)N([C@H](C)CO)C[C@H](C)[C@@H](CN(C)S(=O)(=O)c1ccccc1)O2,inactive,inactive,inactive
CN(C)CC#Cc1ccc([C@@H]2[C@@H](CO)N3CCCCN(C(=O)CN(C)C)C[C@H]23)cc1,inactive,inactive,inactive
C[C@@H]1CCCCO[C@H](CN(C)C)[C@@H](C)CN([C@@H](C)CO)C(=O)c2cc(NC(=O)Nc3cccc4ccccc34)ccc2O1,inactive,inactive,inactive
COc1ccc(NC(=O)N(C)C[C@@H]2OCCCC[C@H](C)Oc3ccc(NC(=O)Cc4ccccc4)cc3C(=O)N([C@H](C)CO)C[C@@H]2C)cc1,inactive,inactive,inactive
C[C@@H]1CN([C@H](C)CO)C(=O)c2cccc(NC(=O)Nc3ccc(C(F)(F)F)cc3)c2O[C@H]1CN(C)C(=O)Nc1ccc(F)cc1,inactive,inactive,inactive
Cc1noc(C)c1S(=O)(=O)Nc1ccc2c(c1)C(=O)N([C@@H](C)CO)C[C@@H](C)[C@H](CN(C)Cc1ccncc1)O2,inactive,inactive,inactive
CCCN(C)C[C@@H]1OCCCC[C@@H](C)Oc2ccc(NC(=O)Nc3ccc(OC)cc3)cc2C(=O)N([C@H](C)CO)C[C@@H]1C,inactive,inactive,inactive
C[C@H]1CN([C@@H](C)CO)C(=O)c2cccc(NS(=O)(=O)c3cn(C)cn3)c2O[C@H]1CN(C)Cc1ccccc1,inactive,inactive,inactive
C[C@H](CO)N1C[C@H](C)[C@H](CN(C)C(=O)Nc2ccc3c(c2)OCO3)Oc2c(NC(=O)Nc3cccc4ccccc34)cccc2C1=O,inactive,inactive,inactive
COc1ccc(NC(=O)N(C)C[C@H]2OCCCC[C@H](C)Oc3ccc(NS(=O)(=O)c4ccc(Cl)cc4)cc3C(=O)N([C@@H](C)CO)C[C@H]2C)cc1,inactive,inactive,inactive
